Results published in PubChem BioAssay AID1454 (National Center for Advancing Translational Sciences (NCATS), 2008).
Hit rate of the full screen: of about 130,000 compounds, about 550 (0.42%) were called active. Inconclusive means that the source gave no clear call. Such entries were picked first, then a sample of the others. Calls come from the whole dose curve; as a rule, active = well fitted inhibition curve with a large enough effect; inconclusive = small, poorly fitted or top-dose-only effect, or effect the other way; inactive = flat fitted curve, though single readings scatter. No potency is given beside an inconclusive call; the fits are too rough.

experiment: qHTS Assay for Inhibitors of the ERK Signaling Pathway using a Homogeneous Screening Assay; Stimulation with EGF; conditions: HEK293-V1b, EGF-stimulated phospho-ERK AlphaScreen; note: nearly all actives have a fitted effect of over 55% in size
Procedure, shortened: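 HEK293 cells stably expressing V1b receptor, serum-reduced (1% FBS) overnight, got compound for 30 min at 37C, then 25 nM EGF for 5 min. Lysate phospho-ERK read by AlphaScreen SureFire; AC50 from Hill fits.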
Potency is the fitted concentration of half-maximal effect; tags give direction and shape of the fitted curve.

Structure (SMILES)	Potency
CC(C)CSC1=NSC2=NC(=O)/C(=C\c3coc4ccccc4c3=O)C(=N)N12	inconclusive [inhibitor, single point]
c1ccc(-c2cc3c(NCC4COc5ccccc5O4)ncnc3s2)cc1 (stereo not given)	inconclusive [inhibitor, single point]
CCCc1c(C(=O)Nc2ccc(F)cc2C)cnn1-c1ccccc1	inconclusive [inhibitor, single point]
CCCCCCCCCCCCCCCCCC(=O)OC(CC(=O)O)C[N+](C)(C)C (stereo not given)	inconclusive [inhibitor, single point]
CCOc1ccc2nc(/N=C/c3c(C)[nH]n(-c4ccc(C)cc4)c3=O)sc2c1	inactive
COc1ccc(C)cc1N1C(=N)/C(=C2/Nc3ccccc3S2)C(c2ccccc2)C1=O (stereo not given)	active: 20 µM
O=C(c1cnn(C(=O)COc2ccc(Cl)cc2)c1)c1ccccc1O	inactive
CCn1c(C)nc2cc(C(=O)N/N=C/c3ccc(O)c(O)c3O)ccc21	inconclusive [inhibitor, partial curve]
COc1ccc(Oc2ncc3nc(C)c(=O)n(CCc4ccccc4)c3n2)cc1	inactive
O=C(Nc1cccc(O)c1)c1ccc(C(=O)c2ccccc2)o1	inconclusive [inhibitor, partial curve]
CCc1ccc(N2C(=O)CC(c3ccc(F)cc3)C3=C2COC3=O)cc1 (stereo not given)	inconclusive [inhibitor, single point]
Cc1nc2cnc(N(C)C)nc2n(C)c1=O	inactive
C=C1C[C@@]23C[C@]1(O)CC[C@@H]2[C@]12C=C[C@@H](O)[C@](C)(C(=O)O1)[C@H]2[C@H]3C(=O)O	inactive
Nc1nc(CN2CCN(c3ccccc3)CC2)nc(Nc2ccc(Cl)cc2)n1	inconclusive [inhibitor, single point]
COC(=O)C1=C(C)N(CCc2ccccc2)C(=O)/C1=C\c1ccco1	inconclusive [inhibitor, single point]
COc1ccccc1CNC(=O)c1cccc2c1C(=O)N(Cc1cccnc1)C2	inconclusive [inhibitor, single point]
Cc1c(N2C(=O)/C(=C\C3CC=CCC3)SC2=S)c(=O)n(-c2ccccc2)n1C (stereo not given)	inconclusive [inhibitor, single point]
Cc1cc(C)c2c(CCl)cc(=O)oc2c1	inconclusive [inhibitor, partial curve]
CCNC(=S)N1CCCC(C(N)=O)C1 (stereo not given)	inconclusive [activator, partial curve, poor fit]
Cc1cc(NCCc2ccc(Cl)cc2)n2ncnc2n1	inconclusive [inhibitor, single point]
CCOc1ccc(NC(=S)N2CCn3c(nc4ccccc43)C2)cc1	inactive
C/C(CC(=O)Nc1ccc(C)c(Cl)c1)=N\NC(=O)Cc1cccs1	inconclusive [inhibitor, partial curve, poor fit]

Structure (SMILES)	Potency
C=CCN(CC=C)c1ccc(N2C(=O)C3CCCCC3C2=O)cc1[N+](=O)[O-] (stereo not given)	inconclusive [inhibitor, single point]
N#Cc1ccc(CN2CC3(CCN(C(=O)c4csnn4)CC3)C2)cc1	inactive
CC(=O)OCC(=O)[C@@]12OC(C)(C)O[C@@H]1C[C@H]1[C@H]3C[C@H](F)C4=CC(=O)C=C[C@@]4(C)[C@]3(F)[C@H](O)C[C@@]12C	inactive
CCCCC1=CC2=C(c3ccco3)C(=O)C(C)(OC(=O)c3ccc(OC)cc3)C(=O)C2=CN1Cc1ccco1 (stereo not given)	inconclusive [inhibitor, single point]
CCOCC(=O)OCC(=O)Nc1cc(OC)c([N+](=O)[O-])cc1C	inactive
CCCCN1C(=O)c2ccc(C(=O)Nc3ccc(S(=O)(=O)N(C)C)cc3)cc2C1=O	inconclusive [inhibitor, single point]
COc1cc([N+](=O)[O-])ccc1NC(=O)CSc1nc2ccccc2n1-c1ccccc1	inconclusive [inhibitor, partial curve]
COc1ccc(-c2nnn(CC(=O)N(CCCN3CCOCC3)C(C(=O)NC3CCCC3)c3ccc(C)o3)n2)cc1 (stereo not given)	inactive
O=C(Nc1ccc(Br)cn1)c1ccc([N+](=O)[O-])cc1Cl	inconclusive [inhibitor, partial curve]
COC(=O)c1c(-n2c(C)cc(C=O)c2C)sc2c1CCCC2	inconclusive [inhibitor, single point]
CN1\C(=C/C=C/C=C/C=[N+](C)C)C(C)(C)c2ccccc21	active: 15.8 µM
O=S(=O)(Nc1ccccc1O)c1ccc(-c2ccccc2)cc1	inconclusive [inhibitor, partial curve]
O=C(Cc1ccccc1)Nc1cc(Cl)ccc1Sc1ccccc1	inconclusive [activator, single point]
COC(=O)N=Nc1c(O)n(Cc2ccccc2)c2ccccc12	inconclusive [inhibitor, partial curve, poor fit]
Clc1ccc2nc(-c3ccncc3)cc(-c3ccccc3)c2c1	inconclusive [activator, partial curve]
C/C(=C\c1ccccc1)C(=O)Nc1ccc(S(=O)(=O)Nc2ncccn2)cc1	inconclusive [inhibitor, single point]
CCN(CC)S(=O)(=O)c1cc(C(=O)Nc2ccccc2[N+](=O)[O-])ccc1Cl	inconclusive [inhibitor, single point]
OC(CNCCc1ccc(Cl)cc1)COc1ccc2ccccc2c1 (stereo not given)	inconclusive [inhibitor, single point]
Cc1ccc(Nc2ccc(C(F)(F)F)cc2[N+](=O)[O-])cc1	inconclusive [inhibitor, partial curve]
O=c1oc2ccccc2c(Nc2ccccc2)c1CN1CCCCC1	inconclusive [inhibitor, single point]
CN(C)c1ccc(/C=N/NC(=O)C(=O)/C=C2\NC3(CCCC3)Cc3ccccc32)cc1	inconclusive [inhibitor, partial curve]
COc1cc(NC(=O)Nc2ccc(C)cc2)cc([N+](=O)[O-])c1	inconclusive [inhibitor, single point]

Structure (SMILES)	Potency
CCN(CC)c1ccc(NC(=S)NCC2CCCO2)cc1 (stereo not given)	inconclusive [inhibitor, partial curve]
COC(=O)N/N=C/c1cc(Cl)c(OCc2ccccc2F)c(OC)c1	inconclusive [inhibitor, single point]
C=CCN1CCc2c(cc(O)c(O)c2Cl)C(c2cccc(C)c2)C1 (stereo not given)	inconclusive [inhibitor, single point]
CCc1cc(C(=O)Cc2ccc(F)cc2)c(O)cc1O	inconclusive [inhibitor, single point]
CC(=O)N1C2(C=CC1(C)C(=O)NCc1ccc(C)o1)CCCCC2 (stereo not given)	inactive
COc1ccc(C(=S)N2CCN(c3ccccc3Cl)CC2)cc1OC	inconclusive [inhibitor, partial curve]
C/C(=N\Nc1ccccc1[N+](=O)[O-])c1ccc(N2CCOCC2)cc1	inconclusive [inhibitor, full curve]
NS(=O)(=O)c1ccc(Sc2nc3ccccc3s2)c([N+](=O)[O-])c1	inconclusive [inhibitor, partial curve]
CCOC(=O)c1ccc(N=c2sc(C(=O)OC)cc(=O)n2CCCN2CCOCC2)cc1	inactive
O=[N+]([O-])c1cccc(/C=N/Nc2nc(C(Cl)(Cl)Cl)nc3ccccc23)c1	inconclusive [inhibitor, single point]
O=C(NCC(c1cccs1)N1CCOCC1)c1cc(-c2ccccn2)nc2ccccc12 (stereo not given)	inconclusive [inhibitor, single point]
O=C(c1ccc(S(=O)(=O)N2CCCCCC2)cc1)N1CCC(CN2C(=O)c3cccc4cccc(c34)C2=O)CC1	inconclusive [inhibitor, partial curve]
COC(=O)c1cccc(-c2ccc(/C=N/N3C(=O)C4C5C=CC(C6CC56)C4C3=O)o2)c1 (stereo not given)	inconclusive [inhibitor, single point]
Nc1ccc(N2CCN(c3ccc(F)cc3)CC2)cc1	inconclusive [inhibitor, single point]
NC(=O)Cn1nc2sc3ccccc3n2c(=O)c1=O	inconclusive [inhibitor, partial curve]
Cc1cc(/C=C2\C(=N)N3N=CSC3=NC2=O)c(C)n1Cc1ccccc1	inconclusive [inhibitor, single point]
COc1cc(/C=N/NC(=O)CCn2c3ccccc3c3ccccc32)cc(OC)c1OC	inconclusive [inhibitor, single point]
CCOC(=O)C(=CNc1ncccc1C)C(=O)OCC	inconclusive [activator, single point]
CC(CO)NCC12CC3CC(CC(C3)C1)C2 (stereo not given)	inactive
COc1cccc([C@@H]2Oc3ccc(OC)cc3C[C@H]2OC(=O)NS(=O)(=O)c2ccc(F)cc2)c1	inactive
CC1(C)CC(=O)C(C(C2=C(O)CC(C)(C)CC2=O)c2ccc(Br)s2)C(=O)C1 (stereo not given)	inconclusive [inhibitor, single point]
